The supplement of paper PMC3334620
Whole data set: some 33,000 sequences, median “E-score (-0.5 to 0.5)” near -0.04, cut for the highest 2% near 0.36. The list shows a part of the results.

Each sequence was assayed against T1, Hmlalpha2 (UniProt P0CY09) (assay: PBM E-score (8-mer binding enrichment) (E-score (-0.5 to 0.5)); higher = stronger / more preferred TF binding; most listed sequences are background and not binding sites). Details: protein concentration: 200 nM; construct: GST-full length.
T1 sequence: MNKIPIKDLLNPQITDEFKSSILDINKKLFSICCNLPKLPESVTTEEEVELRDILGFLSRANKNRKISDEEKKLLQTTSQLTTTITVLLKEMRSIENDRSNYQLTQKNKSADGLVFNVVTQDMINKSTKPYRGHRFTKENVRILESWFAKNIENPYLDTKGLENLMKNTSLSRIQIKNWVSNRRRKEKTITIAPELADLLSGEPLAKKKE
Outline: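 Using PURExpress in vitro transcription/translation, GST-tagged yeast transcription factors were made in full-length or DNA-binding-domain form. These were applied at about 100-200 nM to double-stranded universal all-10-mer Agilent arrays, and bound protein was detected with fluorescent anti-GST. Scans were normalised with masliner before the Universal PBM Analysis Suite assigned E-scores to ungapped eight-base words pooled with their reverse complements.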

Row | Sequence | PBM E-score
1 | AGTAGATA | 0.156
2 | GCCCGACC | -0.407
3 | CGCGCCTC | -0.0944
4 | AGTAATGA | 0.149
5 | CGAGGAGA | -0.261
6 | ATCTGTGC | 0.0427
7 | ACAGCGCG | 0.219
8 | GATCATGC | -0.247
9 | ACCTCGAC | 0.0391
10 | CTAGGGTA | -0.14
11 | GTTCCAAA | 0.0714
12 | AGGACACC | -0.207
13 | ATTCTATC | 0.0639
14 | AATCGGTG | 0.00491
15 | AATAGCAG | -0.137
16 | GGCATATA | 0.028
17 | ACCGCTGA | -0.122
18 | AGGTGGGA | -0.14
19 | AATAAACA | 0.336
20 | AATGGGAG | -0.0589
21 | CGGCGACA | -0.175
22 | ACGTTGTG | 0.245
23 | ACGTCTCC | -0.0447
24 | GAGAAATC | 0.0319
25 | GACTCCGA | -0.196

Row | Sequence | PBM E-score
26 | CCAAACGC | 0.0373
27 | TGGGTAAA | 0.00159
28 | TAAAAACA | 0.358
29 | GCACAGCC | -0.194
30 | ACCCGATG | -0.102
31 | GCCGACAA | 0.056
32 | ATCTTTGA | -0.0584
33 | GTCTTGAA | -0.099
34 | AAGACTAG | -0.115
35 | CTTCAGCA | -0.0759
36 | AAGCCCGT | -0.195
37 | AAGGGAGC | -0.399
38 | ACCTGAAA | -0.0624
39 | ACTTCCGG | -0.0549
40 | CAGCGGTC | -0.297
41 | AAGCATGT | 0.377
42 | GATAAAGC | -0.125
43 | CCCAGTCA | -0.178
44 | CCGGATCC | -0.197
45 | GGGTGTAC | -0.0223
46 | ACCTGACA | -0.0216
47 | ACTATGTG | 0.108
48 | ATTACTGG | 0.0471
49 | GTAGTCGA | 0.0958
50 | AGTACATG | 0.415

Row | Sequence | PBM E-score
51 | AGCGCAGG | -0.254
52 | ACAGTCTC | -0.0119
53 | CGCGAAGC | 0.107
54 | CGGCCACG | -0.281
55 | CGATCACG | 0.125
56 | CAGCAGGC | 0.00631
57 | CGGACTAC | 0.015
58 | ACTTAGAG | -0.0528
59 | GCACCTTA | -0.071
60 | CAGGATTC | -0.11
61 | ACTAATGA | -0.0279
62 | GGAATTGA | 0.04
63 | ATTGAAAC | 0.15
64 | TCCGCTCA | -0.319
65 | CACTCGTA | -0.0159
66 | ACGTATTA | 0.345
67 | GGGTTACA | 0.218
68 | CTCGCAGA | -0.269
69 | ATCCTACC | -0.148
70 | AGCCGGTG | -0.121
71 | AGGTGATC | -0.00387
72 | GAGGGTAC | -0.16
73 | ACGTCCAT | 0.128
74 | TAGAACTA | 0.0464
75 | CGGCAATA | 0.0744

Row | Sequence | PBM E-score
76 | AGCCAGGC | 0.0148
77 | CTGGATCA | -0.0322
78 | AAATGGCG | -0.151
79 | CCTACGTA | 0.256
80 | CGAATTCA | -0.0293
81 | TGATCACA | 0.0151
82 | GGAGTTCA | -0.0503
83 | AGCAATGA | -0.221
84 | AGCAACGG | -0.0919
85 | ATGAGGCG | -0.102
86 | ATCGGTTG | -0.0211
87 | CTGGGGGC | -0.366
88 | ACGATAGT | 0.215
89 | TCGTCGCA | -0.128
90 | AACGAACT | -0.0965
91 | CCAAACTA | 0.101
92 | GAGCTGCC | -0.217
93 | CGGAAAGA | -0.159
94 | CCATAACC | -0.131
95 | GACACTGC | -0.0263
96 | ATTTTTAG | -0.134
97 | ACTCACGA | 0.0238
98 | CTCGACAG | -0.162
99 | AAGGAGCA | -0.237
100 | CACAATCC | 0.0822

Row | Sequence | PBM E-score
101 | CTGGTGTC | -0.237
102 | CAGTCACA | 0.0879
103 | CTAGGGGA | -0.41
104 | AATCTCAT | 0.14
105 | AAATGTCG | 0.117
106 | AGCCAAAT | -0.0214
107 | CCGTCTGC | -0.0191
108 | TATTACAA | 0.416
109 | ATGCGGTA | -0.152
110 | ACAACGAG | 0.197
111 | ACTGTCCA | 0.0356
112 | CCAAGACG | -0.13
113 | CTTGTCGA | 0.204
114 | AGCTGGTC | -0.0222
115 | AACCTATA | 0.11
116 | CGTCTAAG | -0.123
117 | ATCGACAG | -0.186
118 | GTTGTCTA | 0.227
119 | CACACAGA | 0.221
120 | AGCCTAAG | -0.223
121 | ACCTGGAT | -0.292
122 | TATCGATA | 0.0495
123 | GGAGTAGA | -0.0798
124 | ACGCGTAT | 0.357
125 | ACCTATCT | -0.0687

Row | Sequence | PBM E-score
126 | AGCCCGAC | -0.218
127 | ACTGTTTC | -0.0637
128 | GACCCCTA | -0.294
129 | GATCGAGC | -0.136
130 | CCCACGTC | 0.00442
131 | CTTGCACA | 0.0652
132 | AATGAGGG | -0.128
133 | GACAAAGC | -0.0561
134 | CGCGGCAG | -0.165
135 | GCCAGTCC | -0.35
136 | AGAGCCAT | -0.0983
137 | CTGCACTC | -0.131
138 | AGACCCCG | -0.0968
139 | CAGTTCCG | -0.244
140 | ATGAGTCC | -0.0686
141 | ATAAGCGC | 0.0211
142 | AAATTTGG | 0.028
143 | CTAGTGGC | -0.185
144 | AATAGGCC | -0.0703
145 | AACAGGTA | 0.161
146 | CGTCGAAC | 0.0323
147 | AGACAAAC | 0.0402
148 | CTTTAATA | 0.147
149 | CTACCGAG | -0.267
150 | ACATGCAG | 0.316

Row | Sequence | PBM E-score
151 | AAGCGTGA | -0.0159
152 | CCGGATGA | -0.136
153 | AGCAAGCC | -0.273
154 | CCTCGACC | -0.136
155 | CTCAGCGA | -0.0559
156 | AACAAACT | 0.272
157 | CCACCCGG | -0.214
158 | ACTCAAAG | 0.0634
159 | CAAACGAA | 0.0785
160 | ATGAGGTC | -0.194
161 | AGTGGTCA | -0.302
162 | GCCATCGC | -0.26
163 | ATGAGGAC | -0.169
164 | CGTTTGCC | -0.0866
165 | AGATAATG | 0.149
166 | TGAAAAAA | 0.0221
167 | CACGCCGG | -0.102
168 | ATTATTAA | 0.169
169 | ACAATCGA | 0.0699
170 | ACGCGCGG | 0.067
171 | CTCATAGA | -0.134
172 | ACAAAGTG | -0.0986
